From the supplement of paper PMC4967469

Compound: CCc1nc(-c2cccc(C)c2)c(-c2ccnc(NC(=O)c3ccccc3)c2)s1 [TAK-715]
Assay: Viability of human cancer cell lines after 72 h of drug (GDSC screen)
Details: top dose inferred
Procedure: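 Human cancer cell lines in 384-well plates, medium with 10% serum, drug for 72 h over a 256-fold dose range (nine 2-fold or five 4-fold steps up to the top dose). Adherent lines were fixed and stained with the nucleic acid dye Syto60, suspension lines read with resazurin; signal relative to control wells, capped at 0 and 100%. One two-parameter sigmoid per drug and line, fitted in a mixed model over all curves with the slope shared within a line.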

Row | Cell Line | AUC | IC50 [µM]
1 | CAL-51 (breast, adherent, top dose 20 µM) | 0.967 | > 20
2 | CAL-54 (kidney, adherent, top dose 20 µM) | 0.985 | > 20
3 | CAL-62 (thyroid, adherent, top dose 20 µM) | 0.952 | > 20
4 | CAL-72 (osteosarcoma, adherent, top dose 20 µM) | 0.982 | > 20
5 | CAL-78 (chondrosarcoma, adherent, top dose 20 µM) | 0.986 | > 20
6 | CAL-85-1 (breast, adherent, top dose 20 µM) | 0.912 | > 20
7 | CAL-120 (breast, adherent, top dose 20 µM) | 0.949 | > 20
8 | CAL-148 (breast, suspension, top dose 20 µM) | 0.942 | > 20
9 | CAMA-1 (breast, adherent, top dose 20 µM) | 0.917 | > 20
10 | CAPAN-1 (pancreas, adherent, top dose 20 µM) | 0.969 | > 20
11 | CAS-1 (glioma, adherent, top dose 20 µM) | 0.981 | > 20
12 | CCF-STTG1 (glioma, adherent, top dose 20 µM) | 0.988 | > 20
13 | CCK-81 (large intestine, adherent, top dose 20 µM) | 0.786 | 8.07
14 | CCRF-CEM (lymphoblastic leukaemia, suspension, top dose 20 µM) | 0.934 | > 20
15 | CESS (acute myeloid leukaemia, suspension, top dose 20 µM) | 0.914 | > 20
16 | CFPAC-1 (pancreas, adherent, top dose 20 µM) | 0.975 | > 20
17 | CGTH-W-1 (thyroid, adherent, top dose 20 µM) | 0.98 | > 20
18 | CHL-1 (melanoma, adherent, top dose 20 µM) | 0.952 | > 20
19 | CHP-134 (neuroblastoma, suspension, top dose 20 µM) | 0.974 | > 20
20 | CHP-212 (neuroblastoma, adherent, top dose 20 µM) | 0.924 | > 20
21 | CHSA0011 (chondrosarcoma, adherent, top dose 20 µM) | 0.977 | > 20

Row | Cell Line | AUC | IC50 [µM]
22 | CHSA0108 (chondrosarcoma, adherent, top dose 20 µM) | 0.984 | > 20
23 | CHSA8926 (chondrosarcoma, adherent, top dose 20 µM) | 0.98 | > 20
24 | CL-11 (large intestine, adherent, top dose 20 µM) | 0.96 | > 20
25 | CMK (acute myeloid leukaemia, suspension, top dose 20 µM) | 0.881 | 15.4
26 | COLO-205 (large intestine, suspension, top dose 20 µM) | 0.975 | > 20
27 | COLO-320-HSR (large intestine, suspension, top dose 20 µM) | 0.92 | > 20
28 | COLO-668 (small cell lung carcinoma, adherent, top dose 20 µM) | 0.886 | > 20
29 | COLO-678 (large intestine, semi-adherent, top dose 20 µM) | 0.984 | > 20
30 | COLO-679 (melanoma, adherent, top dose 20 µM) | 0.967 | > 20
31 | COLO-680N (oesophagus, adherent, top dose 20 µM) | 0.986 | > 20
32 | COLO-684 (endometrium, suspension, top dose 20 µM) | 0.911 | > 20
33 | COLO-783 (melanoma, adherent, top dose 20 µM) | 0.964 | > 20
34 | COLO-792 (melanoma, adherent, top dose 20 µM) | 0.963 | > 20
35 | COLO-800 (melanoma, adherent, top dose 20 µM) | 0.927 | > 20
36 | COLO-824 (breast, adherent, top dose 20 µM) | 0.944 | > 20
37 | COLO-829 (melanoma, adherent, top dose 20 µM) | 0.978 | > 20
38 | COR-L23 (large cell lung carcinoma, adherent, top dose 20 µM) | 0.932 | > 20
39 | COR-L88 (small cell lung carcinoma, adherent, top dose 20 µM) | 0.944 | > 20
40 | COR-L95 (small cell lung carcinoma, adherent, top dose 20 µM) | 0.985 | > 20
41 | COR-L105 (lung adenocarcinoma, adherent, top dose 20 µM) | 0.891 | > 20
42 | COR-L279 (small cell lung carcinoma, suspension, top dose 20 µM) | 0.943 | > 20

Row | Cell Line | AUC | IC50 [µM]
43 | COR-L303 (small cell lung carcinoma, suspension, top dose 20 µM) | 0.938 | > 20
44 | COR-L311 (small cell lung carcinoma, suspension, top dose 20 µM) | 0.932 | > 20
45 | COR-L321 (lung, suspension, top dose 20 µM) | 0.884 | > 20
46 | CP50-MEL-B (melanoma, adherent, top dose 20 µM) | 0.977 | > 20
47 | CP66-MEL (melanoma, adherent, top dose 20 µM) | 0.974 | > 20
48 | CPC-N (small cell lung carcinoma, suspension, top dose 20 µM) | 0.974 | > 20
49 | CS1 (bone, adherent, top dose 20 µM) | 0.946 | > 20
50 | CTB-1 (B-cell lymphoma, suspension, top dose 20 µM) | 0.83 | 19.4
51 | CTV-1 (acute myeloid leukaemia, suspension, top dose 20 µM) | 0.65 | 2.97
52 | CW-2 (large intestine, adherent, top dose 20 µM) | 0.821 | 12.8
53 | Ca9-22 (head and neck, adherent, top dose 20 µM) | 0.97 | > 20
54 | Ca-Ski (cervix, adherent, top dose 20 µM) | 0.823 | 13.7
55 | CaR-1 (large intestine, adherent, top dose 20 µM) | 0.94 | > 20
56 | Calu-3 (lung adenocarcinoma, adherent, top dose 20 µM) | 0.979 | > 20
57 | Calu-6 (lung adenocarcinoma, adherent, top dose 20 µM) | 0.968 | > 20
58 | Caov-3 (ovary, adherent, top dose 20 µM) | 0.918 | > 20
59 | Caov-4 (ovary, adherent, top dose 20 µM) | 0.963 | > 20
60 | Capan-2 (pancreas, adherent, top dose 20 µM) | 0.985 | > 20
61 | ChaGo-K-1 (non-small cell lung carcinoma, adherent, top dose 20 µM) | 0.942 | > 20
62 | D-247MG (glioma, adherent, top dose 20 µM) | 0.98 | > 20
63 | D-263MG (glioma, adherent, top dose 20 µM) | 0.973 | > 20

Row | Cell Line | AUC | IC50 [µM]
64 | D-283MED (medulloblastoma, adherent, top dose 20 µM) | 0.974 | > 20
65 | D-336MG (glioma, adherent, top dose 20 µM) | 0.928 | > 20
66 | D-392MG (glioma, adherent, top dose 20 µM) | 0.98 | > 20
67 | D-423MG (glioma, adherent, top dose 20 µM) | 0.964 | > 20
68 | D-502MG (glioma, adherent, top dose 20 µM) | 0.976 | > 20
69 | D-542MG (glioma, adherent, top dose 20 µM) | 0.984 | > 20
70 | D-566MG (glioma, adherent, top dose 20 µM) | 0.986 | > 20
71 | DAN-G (pancreas, adherent, top dose 20 µM) | 0.983 | > 20
72 | DB (B-cell lymphoma, suspension, top dose 20 µM) | 0.813 | 12.6
73 | DBTRG-05MG (glioma, adherent, top dose 20 µM) | 0.969 | > 20
74 | DEL (lymphoid neoplasm, suspension, top dose 20 µM) | 0.917 | 18.9
75 | DG-75 (Burkitt lymphoma, suspension, top dose 20 µM) | 0.884 | > 20
76 | DJM-1 (skin, adherent, top dose 20 µM) | 0.978 | > 20
77 | DK-MG (glioma, adherent, top dose 20 µM) | 0.978 | > 20
78 | DMS-53 (small cell lung carcinoma, adherent, top dose 20 µM) | 0.981 | > 20
79 | DMS-79 (small cell lung carcinoma, suspension, top dose 20 µM) | 0.974 | > 20
80 | DMS-114 (small cell lung carcinoma, adherent, top dose 20 µM) | 0.961 | > 20
81 | DMS-273 (small cell lung carcinoma, adherent, top dose 20 µM) | 0.9 | > 20

Lines with a small IC50 respond at low doses; a limit (>, <) means that the fit lies beyond the doses tested. AUC is the area under the same curve over the 256-fold range up to the top dose, as a fraction: 1 means no effect, lower means more sensitive. The top dose, if marked as inferred, is not printed in the source and was worked back from the curve model.
